Reference: PubChem BioAssay AID1645886 (National Center for Advancing Translational Sciences (NCATS), 2021)
Several values for one entry are separate records, joined by “and”; a condition that tells them apart may be missing. Identical values can stand only once. Out of some 16,000 compounds screened, about 260 (1.6%) were called active. Inconclusive means that the source gave no clear call. Such entries were picked first, then a sample of the others. Calls follow the shape of the dose curve; as a rule, active = well fitted inhibition curve with a large enough effect; inconclusive = small, poorly fitted or top-dose-only effect; inactive = no such curve, though single readings can be large or run the other way. Potencies beside an inconclusive call are fits to weak or partial responses and may not hold up.

These compounds were tested against Rap guanine nucleotide exchange factor 4 (Homo sapiens) (UniProt Q8WZA2) (assay: Validation qHTS for antagonist of cAMP-regulated guanine nucleotide exchange factor 4 (EPAC2)). Details: EPAC2 Rap1B BODIPY-GDP exchange, fluorescence; activity, negative = inhibition: at 112 µM (top of the series).
Sequence of UniProt Q8WZA2 (Q8WZA2 whole entry, looked up): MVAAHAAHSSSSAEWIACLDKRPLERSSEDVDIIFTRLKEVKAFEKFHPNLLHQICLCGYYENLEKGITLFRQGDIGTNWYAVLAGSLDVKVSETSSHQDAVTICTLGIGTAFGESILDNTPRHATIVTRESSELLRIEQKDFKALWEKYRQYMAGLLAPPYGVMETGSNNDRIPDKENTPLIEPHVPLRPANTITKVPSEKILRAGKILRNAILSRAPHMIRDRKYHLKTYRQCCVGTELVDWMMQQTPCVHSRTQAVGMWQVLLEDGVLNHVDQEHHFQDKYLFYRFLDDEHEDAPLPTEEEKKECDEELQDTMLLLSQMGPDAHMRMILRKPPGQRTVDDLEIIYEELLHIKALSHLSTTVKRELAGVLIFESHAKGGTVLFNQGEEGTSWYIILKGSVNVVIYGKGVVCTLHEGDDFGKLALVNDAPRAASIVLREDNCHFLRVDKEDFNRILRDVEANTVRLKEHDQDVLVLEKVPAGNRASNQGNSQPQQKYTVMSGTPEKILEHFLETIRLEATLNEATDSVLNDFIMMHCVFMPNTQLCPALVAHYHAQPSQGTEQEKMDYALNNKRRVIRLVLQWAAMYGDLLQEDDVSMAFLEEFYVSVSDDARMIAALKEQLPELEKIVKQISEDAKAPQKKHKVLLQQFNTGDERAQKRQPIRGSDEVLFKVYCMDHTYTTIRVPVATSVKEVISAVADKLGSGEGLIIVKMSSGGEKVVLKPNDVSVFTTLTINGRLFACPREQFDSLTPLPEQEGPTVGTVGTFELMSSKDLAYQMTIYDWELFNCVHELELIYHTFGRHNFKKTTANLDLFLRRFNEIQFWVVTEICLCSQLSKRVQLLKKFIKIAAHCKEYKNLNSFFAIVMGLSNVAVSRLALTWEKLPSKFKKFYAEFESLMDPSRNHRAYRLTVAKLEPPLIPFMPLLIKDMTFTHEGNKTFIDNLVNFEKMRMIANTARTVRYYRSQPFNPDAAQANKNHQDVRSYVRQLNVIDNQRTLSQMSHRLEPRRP
Summary of the method: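 Normalized against a 6.5 mM cAMP agonist control, compounds were tested on 100 nM EPAC2 exchanging Rap1B-bound BODIPY-GDP (250 nM) for 50 uM GDP. Fluorescence drop (ex 480, em 540 nm) was tracked at room temperature over 30 min at 5-min intervals.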
Also: nearly all actives have a fitted effect of over 40% in size.
Potency is read from the fitted curve at half-maximal effect; tags tell the direction and shape of the fitted curve.

| SMILES | Potency | activity, negative = inhibition |
| --- | --- | --- |
| Cc1cccc(CNc2ccnc(-c3ccccc3Cl)n2)c1 | inconclusive: 89.1 µM [inhibitor, single point] | – |
| COCc1ccc(CN2Cc3ccccc3OC(c3ccccc3OC)C2)o1 (stereo unspecified) | inconclusive: 8.91 µM [inhibitor, partial curve, poor fit] | – |
| C=C1CC[C@H](O)C/C1=C\C=C1/CCC[C@]2(C)[C@@H]([C@H](C)CCCC(C)C)CC[C@@H]12 | inconclusive: 44.7 µM [inhibitor, partial curve] | – |
| CC[C@@H](C)[C@H](N)C(=O)O | inactive | – |
| C=C[C@](C)(O)CCC1C(=C)CC(OC(C)=O)C2C(C)(C)CCCC12C (stereo partly specified) | active: 10 µM | – |
| CCCCCCc1ccc(N2C[C@H](CCCCC)[C@@H](CC(=O)NCc3ccccc3)C2=O)cc1 | inconclusive: 39.8 µM [inhibitor, single point] | – |
| CNC(=O)[C@@H]1C[C@H](Sc2nc3ccccc3[nH]2)CN1Cc1cccc(C(F)(F)F)c1 | inconclusive: 3.16 µM [inhibitor, full curve] | – |
| COc1ccc2[nH]cc(CCNc3nc(-c4cccc(NS(C)(=O)=O)c4)nc4ccccc34)c2c1 | inactive | – |
| O=C(Oc1ccccc1)N1CCC2(CCCN(c3ncccn3)C2)CC1 | inconclusive: 63.1 µM [inhibitor, partial curve, poor fit] | – |
| CC1CN(CCNC(=O)C2CCCc3c2[nH]c2ccccc32)Cc2ccccc2O1 (stereo unspecified) | inconclusive: 100 µM [inhibitor, single point] | – |
| COC(=O)[C@@H](N)CS | inconclusive: 79.4 µM [inhibitor, single point] | – |
| CC(=O)N1CCC2(CCCN(C(c3ccccc3)c3ccccc3)C2)CC1 | active: 31.6 µM | – |
| O=C1Nc2ccc(I)cc2/C1=C/c1cc(Br)c(O)c(Br)c1 | inconclusive: 79.4 µM [inhibitor, single point] and inconclusive: 89.1 µM [inhibitor, single point] | – |
| CC[N+](CC)(CC(=O)Nc1c(C)cccc1C)Cc1ccccc1 | inconclusive: 63.1 µM [inhibitor, single point] | – |
| O=S(=O)(c1ccccc1)N1CCC2(CCN(c3ccccc3)CC2)CC1 | inconclusive: 79.4 µM [inhibitor, partial curve, poor fit] | – |
| O=C(c1cc(C(F)(F)F)cc(C(F)(F)F)c1)N1CCC2(CCCN(c3ncccn3)C2)CC1 | inconclusive: 28.2 µM [inhibitor, full curve] | – |
| Cc1[nH]c2ccccc2c1/C=C/c1nccc2ccccc12 | inconclusive: 100 µM [inhibitor, single point] | – |
| COc1ccc(CN2C[C@H](Sc3nc4ccccc4[nH]3)C[C@H]2C(=O)N(C)C)c2ccccc12 | inconclusive: 0.562 µM [inhibitor, full curve, poor fit] | – |
| COc1ccc(Oc2ncc3nc(C)c(=O)n(Cc4ccc(F)cc4)c3n2)cc1 | inconclusive: 50.1 µM [inhibitor, partial curve, poor fit] | – |

| SMILES | Potency | activity, negative = inhibition |
| --- | --- | --- |
| Cc1nc2cc(NC(=O)[C@@H]3C[C@@H](Sc4ccccn4)CN3Cc3cccc(Cl)c3)ccc2s1 | inactive | – |
| CC(=O)Nc1ccccc1-c1nc(CNC(=O)c2ccc(-c3ccccc3F)cc2)c(C)o1 | inconclusive: 70.8 µM [inhibitor, partial curve, poor fit] | – |
| CC(C)Oc1ccc(C(=O)NCC2Cc3cc(Cl)cc(-c4ncccn4)c3O2)cc1 (stereo unspecified) | inconclusive: 63.1 µM [inhibitor, partial curve, poor fit] | – |
| COC(=O)c1cc(CNC(=O)c2ccccc2F)cc(NC(=O)c2ccccc2OC)c1 | inconclusive: 89.1 µM [inhibitor, single point] | – |
| CNC(=O)[C@H]1O[C@@H](n2cnc3c(NCc4ccc(I)cc4)nc(Cl)nc32)[C@H](O)[C@@H]1O | inconclusive: 39.8 µM [inhibitor, partial curve] | – |
| Clc1cccc(Nc2nnc(-c3ccccc3)c3ccccc23)c1 | inconclusive: 100 µM [inhibitor, partial curve] | – |
| COc1ccc2c(c1)-c1nc(-n3ncc(C(=O)NCc4cccnc4)c3C3CC3)ncc1CC2 | inactive | – |
| O=S1(=O)CCOC[C@H](CC2CCCCC2)N1Cc1ccc(F)cc1 | inconclusive: 28.2 µM [inhibitor, full curve, poor fit] | – |
| CCCC[C@H]1COCCS(=O)(=O)N1Cc1ccc(Br)cc1 | inconclusive: 39.8 µM [inhibitor, partial curve, poor fit] | – |
| CCC(C)[C@@H](N)C(=O)O (stereo partly specified) | inactive | – |
| O=C1[C@H](Cc2ccccc2)NCCCC[C@H](c2ccco2)N1Cc1ccccc1 | inconclusive: 50.1 µM [inhibitor, partial curve] | – |
| COc1ccc(CN2CCc3nnc(CNC(=O)c4cc(C)oc4C)n3CC2)c2ccccc12 | inconclusive: 12.6 µM [inhibitor, full curve, poor fit] | – |
| O=S(=O)(c1ccccc1)N1CCC2(CCCN(c3ccccn3)C2)CC1 | inconclusive: 44.7 µM [inhibitor, partial curve, poor fit] | – |
| CC1(C)[C@H](O[C@H]2O[C@H](C(=O)O)[C@@H](O)[C@H](O)[C@H]2O[C@@H]2O[C@H](C(=O)O)[C@@H](O)[C@H](O)[C@H]2O)CC[C@@]2(C)[C@H]1CC[C@]1(C)[C@H]2C(=O)C=C2[C@H]3C[C@@](C)(C(=O)O)CC[C@]3(C)CC[C@]21C | inconclusive: 39.8 µM [inhibitor, partial curve] | – |
| OC[C@@H](O)COc1cccc2ccccc12 | inconclusive: 39.8 µM [inhibitor, partial curve] | – |
| CCCC(=O)O[C@]1(C(=O)CO)CC[C@H]2[C@@H]3CCC4=CC(=O)CC[C@]4(C)[C@H]3[C@@H](O)C[C@@]21C | inconclusive: 3.16 µM [inhibitor, full curve] | – |
| COc1cc2c(cc1OC)[C@@H]1C(=O)c3ccc4c(c3O[C@@H]1CO2)C=CC(C)(C)O4 | inconclusive: 50.1 µM [inhibitor, partial curve] | – |
| COc1ccc(CN2[C@@H](CC(=O)O)c3ccc(C(F)(F)F)cc3S2(=O)=O)cc1 | inconclusive: 100 µM [inhibitor, partial curve, poor fit] | – |
| O=C(O)c1cc([N+](=O)[O-])ccc1NCCCc1ccccc1 | inconclusive: 44.7 µM [inhibitor, partial curve] | – |

| SMILES | Potency | activity, negative = inhibition |
| --- | --- | --- |
| CC(O)[C@@H]1NC(=O)[C@H](Cc2ccccc2)NC(=O)[C@H](C(C)O)NC(=O)[C@H](CCCCN)NC(=O)[C@H](Cc2c[nH]c3ccccc23)NC(=O)[C@H](Cc2ccccc2)NC(=O)[C@H](Cc2ccccc2)NC(=O)[C@H](CC(N)=O)NC(=O)[C@H](CCCCN)NC(=O)[C@@H](NC(=O)CNC(=O)[C@H](C)N)CSSC[C@@H](C(=O)O)NC(=O)[C@H](CO)NC1=O (stereo partly specified) | inactive | – |
| CCCCCCCCNC(C)C(O)c1ccc(SC(C)C)cc1 (stereo unspecified) | inconclusive: 15.8 µM [inhibitor, partial curve, poor fit] | – |
| O=C(c1ccncc1)N1CCC2(CCCN(c3ccncc3)C2)CC1 | – | inconclusive: -30.4% [inhibitor] |
| CC(C)(O)C#Cc1ccc(C(=O)NCCN2Cc3ccccc3OC(c3ccccc3F)C2)o1 (stereo unspecified) | inconclusive: 79.4 µM [inhibitor, single point] | – |
| O=c1c(CCc2ccccc2)nc2cncnc2n1C1CC1 | inconclusive: 31.6 µM [inhibitor, partial curve] | – |
| COC(=O)[C@H](CC(C)C)N(Cc1ccccc1)S(=O)(=O)N(Cc1ccccc1)[C@@H](CC(C)C)C(=O)OC | inconclusive: 3.98 µM [inhibitor, partial curve, poor fit] | – |
| NC(CSCC(=O)O)C(=O)O (stereo unspecified) | inconclusive: 20 µM [inhibitor, full curve, poor fit] | – |
| Cc1ncc2c(c1CNS(=O)(=O)N(C)C)CCN(C(=O)c1[nH]c3ccc(Cl)cc3c1C)C2 | inconclusive: 79.4 µM [inhibitor, partial curve] | – |
| CC1=CC2C(CC1=O)C(C)=CCC2C(C)C (stereo unspecified) | inconclusive: 39.8 µM [inhibitor, partial curve] | – |
| CN(C)c1ncc2ncc(=O)n(CCc3ccccc3)c2n1 | inconclusive: 50.1 µM [inhibitor, partial curve] | – |
| Cc1nc2ccccc2nc1/C=C/c1ccc(N(C)C)cc1 | inconclusive: 56.2 µM [inhibitor, partial curve, poor fit] | – |
| C[C@@H](CSc1ccccc1)CN1CC[C@H](C(C)(C)C)CCC1=O | inconclusive: 50.1 µM [inhibitor, partial curve, poor fit] | – |
| CCCCCCCCCCCCCCCC[n+]1ccc(/C=C/c2c(C)[nH]c3ccccc23)cc1 | inconclusive: 0.126 µM [inhibitor, full curve, poor fit] | – |
| O=S1(=O)CCO[C@H]2Cc3ccccc3[C@H]2N1Cc1cccc(C(F)(F)F)c1 | active: 28.2 µM | – |
| CC[C@@]1(O)C(=O)OCc2c1cc1n(c2=O)Cc2cc3c(CN(C)C)c(O)ccc3nc2-1 | inactive | – |
| CCCCN1CC[C@H]2C=CC[C@@H](C(=O)NC3CCCCC3)[C@H]2C1=O | inconclusive: 112 µM [inhibitor, partial curve, poor fit] | – |
| Oc1cc(O)cc(/C=C/c2ccc(O)c(O)c2)c1 | inconclusive: 50.1 µM [inhibitor, partial curve] and inconclusive: 39.8 µM [inhibitor, partial curve, poor fit] | – |
| Cc1c(CN2CCOc3ccc(C(C)(O)COc4ccccc4)cc3C2)cnn1C (stereo unspecified) | inactive | – |
